Measurements reported in the supplement of paper PMC10369915.
The other results are listed elsewhere or left out. Rule as the data show it: active = 3.2 or more and inactive = the rest. Only a few entries rise above the background.

Target: SHP2 C-SH2 domain E139D
Test: enrichment score (SH2-bound / input frequency) (ratio); bacterial display of known human phosphotyrosine sites (pTyr-Var adds point mutants) read by sequencing; higher = stronger binding; tyrosines were phosphorylated by kinases first
Conditions: peptide library: Human pTyr
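Also: displayed peptides selected on beads carrying the immobilized SH2 domain, with library peptides lacking any tyrosine serving as negative controls.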

Enrichment score, inactive:
GAYREHPYGRYGGGG [KHDR1_HUMAN_440] 2.12
YYRQQAAYYGQTPGP [KHSRP_HUMAN_688] 0.586
VSGEKNIYAFMGTPV [KI67_HUMAN_1552] 0.894
KDPTNGYYNVRAHED [KIRR1_HUMAN_606] 1.2
VMILTAKYLQKPMAE [KIT_HUMAN_547_YA] 1.07
KALQKPMYEVQWKVV [KIT_HUMAN_553_YA] 1.61
EEINGNNYVYIDPTQ [KIT_HUMAN_568] 0.922
INGNNYVYIDPTQLP [KIT_HUMAN_570] 0.843
INGNNAVYIDPTQLP [KIT_HUMAN_570_YA] 0.8
DHAEAALYKNLLHSK [KIT_HUMAN_703] 1.07
CSDSTNEYMDMKPGV [KIT_HUMAN_721] 1.38
APTDNEDYEHDDEDD [3BP2_HUMAN_174_YA] 0.913
EHAPAEMYDIMKTCW [KIT_HUMAN_900] 1.2
SESTNHIYSNLANCS [KIT_HUMAN_936] 1.02
DGTSFGEYGGWYKAC [KLC1_HUMAN_449] 1.11
DGTSFGEYGGWAKAC [KLC1_HUMAN_449_YA] 0.733
NEFAGFSYTNPEFVI [KPCB_HUMAN_662] 0.996
MQDNSGTYGKIWEGS [KPCD_HUMAN_334] 0.584

Target: SHP2 C-SH2 domain wild-type
Test: as above
Conditions: peptide library: Human pTyr

Enrichment score, inactive:
GAYREHPYGRYGGGG [KHDR1_HUMAN_440] 2.16
YYRQQAAYYGQTPGP [KHSRP_HUMAN_688] 0.431
VSGEKNIYAFMGTPV [KI67_HUMAN_1552] 1.03
KDPTNGYYNVRAHED [KIRR1_HUMAN_606] 1.03
VMILTAKYLQKPMAE [KIT_HUMAN_547_YA] 0.888
KALQKPMYEVQWKVV [KIT_HUMAN_553_YA] 1.35
EEINGNNYVYIDPTQ [KIT_HUMAN_568] 0.886
INGNNYVYIDPTQLP [KIT_HUMAN_570] 1.92
INGNNAVYIDPTQLP [KIT_HUMAN_570_YA] 0.569
DHAEAALYKNLLHSK [KIT_HUMAN_703] 0.854
CSDSTNEYMDMKPGV [KIT_HUMAN_721] 0.927
APTDNEDYEHDDEDD [3BP2_HUMAN_174_YA] 0.889
EHAPAEMYDIMKTCW [KIT_HUMAN_900] 1.21
SESTNHIYSNLANCS [KIT_HUMAN_936] 0.915
DGTSFGEYGGWYKAC [KLC1_HUMAN_449] 0.881
DGTSFGEYGGWAKAC [KLC1_HUMAN_449_YA] 0.685
NEFAGFSYTNPEFVI [KPCB_HUMAN_662] 0.884
MQDNSGTYGKIWEGS [KPCD_HUMAN_334] 0.636

Target: SHP2 N-SH2 domain L43F
Test: as above
Conditions: peptide library: Human pTyr

Enrichment score, inactive:
GAYREHPYGRYGGGG [KHDR1_HUMAN_440] 1.88
YYRQQAAYYGQTPGP [KHSRP_HUMAN_688] 0.695
VSGEKNIYAFMGTPV [KI67_HUMAN_1552] 0.65
KDPTNGYYNVRAHED [KIRR1_HUMAN_606] 1.04
VMILTAKYLQKPMAE [KIT_HUMAN_547_YA] 0.917
KALQKPMYEVQWKVV [KIT_HUMAN_553_YA] 1.29
EEINGNNYVYIDPTQ [KIT_HUMAN_568] 0.762
INGNNYVYIDPTQLP [KIT_HUMAN_570] 1
INGNNAVYIDPTQLP [KIT_HUMAN_570_YA] 0.774
DHAEAALYKNLLHSK [KIT_HUMAN_703] 0.687
CSDSTNEYMDMKPGV [KIT_HUMAN_721] 1.09
APTDNEDYEHDDEDD [3BP2_HUMAN_174_YA] 0.985
EHAPAEMYDIMKTCW [KIT_HUMAN_900] 1.22
SESTNHIYSNLANCS [KIT_HUMAN_936] 0.695
DGTSFGEYGGWYKAC [KLC1_HUMAN_449] 0.845
DGTSFGEYGGWAKAC [KLC1_HUMAN_449_YA] 0.653
NEFAGFSYTNPEFVI [KPCB_HUMAN_662] 1.32
MQDNSGTYGKIWEGS [KPCD_HUMAN_334] 0.681

Target: SHP2 N-SH2 domain T42A
Test: as above
Conditions: peptide library: Human pTyr

Enrichment score, inactive:
GAYREHPYGRYGGGG [KHDR1_HUMAN_440] 2.02
YYRQQAAYYGQTPGP [KHSRP_HUMAN_688] 0.411
VSGEKNIYAFMGTPV [KI67_HUMAN_1552] 0.827
KDPTNGYYNVRAHED [KIRR1_HUMAN_606] 1.09
VMILTAKYLQKPMAE [KIT_HUMAN_547_YA] 0.796
KALQKPMYEVQWKVV [KIT_HUMAN_553_YA] 1.33
EEINGNNYVYIDPTQ [KIT_HUMAN_568] 0.772
INGNNYVYIDPTQLP [KIT_HUMAN_570] 0.784
INGNNAVYIDPTQLP [KIT_HUMAN_570_YA] 0.601
DHAEAALYKNLLHSK [KIT_HUMAN_703] 0.95
CSDSTNEYMDMKPGV [KIT_HUMAN_721] 1.21
APTDNEDYEHDDEDD [3BP2_HUMAN_174_YA] 0.951
EHAPAEMYDIMKTCW [KIT_HUMAN_900] 1.22
SESTNHIYSNLANCS [KIT_HUMAN_936] 0.846
DGTSFGEYGGWYKAC [KLC1_HUMAN_449] 0.949
DGTSFGEYGGWAKAC [KLC1_HUMAN_449_YA] 0.711
NEFAGFSYTNPEFVI [KPCB_HUMAN_662] 1.62
MQDNSGTYGKIWEGS [KPCD_HUMAN_334] 0.735

Target: SHP2 N-SH2 domain T52S
Test: as above
Conditions: peptide library: Human pTyr

Enrichment score, inactive:
GAYREHPYGRYGGGG [KHDR1_HUMAN_440] 2.29
YYRQQAAYYGQTPGP [KHSRP_HUMAN_688] 0.598
VSGEKNIYAFMGTPV [KI67_HUMAN_1552] 0.721
KDPTNGYYNVRAHED [KIRR1_HUMAN_606] 1.09
VMILTAKYLQKPMAE [KIT_HUMAN_547_YA] 1.11
KALQKPMYEVQWKVV [KIT_HUMAN_553_YA] 1.64
EEINGNNYVYIDPTQ [KIT_HUMAN_568] 0.693
INGNNYVYIDPTQLP [KIT_HUMAN_570] 0.344
INGNNAVYIDPTQLP [KIT_HUMAN_570_YA] 1.01
DHAEAALYKNLLHSK [KIT_HUMAN_703] 1.04
CSDSTNEYMDMKPGV [KIT_HUMAN_721] 1.24
APTDNEDYEHDDEDD [3BP2_HUMAN_174_YA] 0.752
EHAPAEMYDIMKTCW [KIT_HUMAN_900] 1.11
SESTNHIYSNLANCS [KIT_HUMAN_936] 1.38
DGTSFGEYGGWYKAC [KLC1_HUMAN_449] 1.05
DGTSFGEYGGWAKAC [KLC1_HUMAN_449_YA] 0.7
NEFAGFSYTNPEFVI [KPCB_HUMAN_662] 1.06
MQDNSGTYGKIWEGS [KPCD_HUMAN_334] 0.805

Target: SHP2 N-SH2 domain wild-type
Test: as above
Conditions: peptide library: Human pTyr

Enrichment score, inactive:
GAYREHPYGRYGGGG [KHDR1_HUMAN_440] 2.51
YYRQQAAYYGQTPGP [KHSRP_HUMAN_688] 0.623
VSGEKNIYAFMGTPV [KI67_HUMAN_1552] 0.748
KDPTNGYYNVRAHED [KIRR1_HUMAN_606] 1.27
VMILTAKYLQKPMAE [KIT_HUMAN_547_YA] 1.05
KALQKPMYEVQWKVV [KIT_HUMAN_553_YA] 1.62
EEINGNNYVYIDPTQ [KIT_HUMAN_568] 0.773
INGNNYVYIDPTQLP [KIT_HUMAN_570] 0.542
INGNNAVYIDPTQLP [KIT_HUMAN_570_YA] 0.796
DHAEAALYKNLLHSK [KIT_HUMAN_703] 1.06
CSDSTNEYMDMKPGV [KIT_HUMAN_721] 1.01
APTDNEDYEHDDEDD [3BP2_HUMAN_174_YA] 1.31
EHAPAEMYDIMKTCW [KIT_HUMAN_900] 1.53
SESTNHIYSNLANCS [KIT_HUMAN_936] 1.14
DGTSFGEYGGWYKAC [KLC1_HUMAN_449] 1.11
DGTSFGEYGGWAKAC [KLC1_HUMAN_449_YA] 0.815
NEFAGFSYTNPEFVI [KPCB_HUMAN_662] 0.933
MQDNSGTYGKIWEGS [KPCD_HUMAN_334] 0.666
